Positions count from the first letter of the chain named. The list shows a part of the results.

T1: RBFOX1 RRM RbFoxmut (Fox-RRM*) (Homo sapiens, UniProt Q9NWB1 109-208, R118D;E147R;N151S;E152T)
T1 sequence: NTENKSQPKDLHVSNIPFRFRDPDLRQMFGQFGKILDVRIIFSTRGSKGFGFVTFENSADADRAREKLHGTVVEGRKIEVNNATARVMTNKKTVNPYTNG

B1: CAGGUCA (DNA:RNA)
RNA: GGGAGACCGGAAUUCAGAUUGUCCCAGGUCAUUAAAUCCCGUCGUAGCCACCA
DNA 1: CAATCTGAATTCCGGTCTCCC
DNA 2: TGGTGGCTACGACGGGATT
B2: CCCUGAG (DNA:RNA)
RNA: B1 RNA with A26C, G27C, G28U, U29G, C30A, A31G
DNA 1: CAATCTGAATTCCGGTCTCCC
DNA 2: TGGTGGCTACGACGGGATT
B3: AUAUAAC (DNA:RNA)
RNA: GGGAGACCGGAAUUCAGAUUGUCCAUAUAACUUAAAUCCCGUCGUAGCCACCA
DNA 1: CAATCTGAATTCCGGTCTCCC
DNA 2: TGGTGGCTACGACGGGATT
B4: GUUGACA (DNA:RNA)
RNA: B1 RNA with C25G, A26U, G27U, U29A
DNA 1: CAATCTGAATTCCGGTCTCCC
DNA 2: TGGTGGCTACGACGGGATT
B5: GGGAGGA (DNA:RNA)
RNA: B1 RNA with C25G, A26G, G28A, U29G, C30G
DNA 1: CAATCTGAATTCCGGTCTCCC
DNA 2: TGGTGGCTACGACGGGATT
B6: UUGACUU (DNA:RNA)
RNA: B3 RNA with A25U, A27G, U28A, A29C, A30U, C31U
DNA 1: CAATCTGAATTCCGGTCTCCC
DNA 2: TGGTGGCTACGACGGGATT
B7: UGGCACU (DNA:RNA)
RNA: B1 RNA with C25U, A26G, G28C, U29A, A31U
DNA 1: CAATCTGAATTCCGGTCTCCC
DNA 2: TGGTGGCTACGACGGGATT
B8: UCCGAUG (DNA:RNA)
RNA: B3 RNA with A25U, U26C, A27C, U28G, A30U, C31G
DNA 1: CAATCTGAATTCCGGTCTCCC
DNA 2: TGGTGGCTACGACGGGATT
B9: GGCAGAU (DNA:RNA)
RNA: B3 RNA with A25G, U26G, A27C, U28A, A29G, C31U
DNA 1: CAATCTGAATTCCGGTCTCCC
DNA 2: TGGTGGCTACGACGGGATT
B10: GCAAUCA (DNA:RNA)
RNA: B1 RNA with C25G, A26C, G27A, G28A
DNA 1: CAATCTGAATTCCGGTCTCCC
DNA 2: TGGTGGCTACGACGGGATT
B11: GUUGUAC (DNA:RNA)
RNA: B3 RNA with A25G, A27U, U28G, A29U
DNA 1: CAATCTGAATTCCGGTCTCCC
DNA 2: TGGTGGCTACGACGGGATT
B12: CGCGUUC (DNA:RNA)
RNA: B1 RNA with A26G, G27C, C30U, A31C
DNA 1: CAATCTGAATTCCGGTCTCCC
DNA 2: TGGTGGCTACGACGGGATT
B13: GGCGUCC (DNA:RNA)
RNA: B1 RNA with C25G, A26G, G27C, A31C
DNA 1: CAATCTGAATTCCGGTCTCCC
DNA 2: TGGTGGCTACGACGGGATT
B14: UGGACGG (DNA:RNA)
RNA: B1 RNA with C25U, A26G, G28A, U29C, C30G, A31G
DNA 1: CAATCTGAATTCCGGTCTCCC
DNA 2: TGGTGGCTACGACGGGATT
B15: GGAGCGA (DNA:RNA)
RNA: B1 RNA with C25G, A26G, G27A, U29C, C30G
DNA 1: CAATCTGAATTCCGGTCTCCC
DNA 2: TGGTGGCTACGACGGGATT
B16: GAUGCGG (DNA:RNA)
RNA: B1 RNA with C25G, G27U, U29C, C30G, A31G
DNA 1: CAATCTGAATTCCGGTCTCCC
DNA 2: TGGTGGCTACGACGGGATT
B17: ACUAAGG (DNA:RNA)
RNA: B3 RNA with U26C, A27U, U28A, A30G, C31G
DNA 1: CAATCTGAATTCCGGTCTCCC
DNA 2: TGGTGGCTACGACGGGATT
B18: AACCUCU (DNA:RNA)
RNA: B1 RNA with C25A, G27C, G28C, A31U
DNA 1: CAATCTGAATTCCGGTCTCCC
DNA 2: TGGTGGCTACGACGGGATT
B19: CAAUUUC (DNA:RNA)
RNA: B3 RNA with A25C, U26A, A29U, A30U
DNA 1: CAATCTGAATTCCGGTCTCCC
DNA 2: TGGTGGCTACGACGGGATT
B20: UACUUGG (DNA:RNA)
RNA: B1 RNA with C25U, G27C, G28U, C30G, A31G
DNA 1: CAATCTGAATTCCGGTCTCCC
DNA 2: TGGTGGCTACGACGGGATT

The assay deals with T1, RBFOX1 RRM RbFoxmut (Fox-RRM*). The assay can be described thus: EMSA; HiTS-Eq, 1 nM pool, 10 min; buffer printed only for the single-RNA assays: 10 mM Tris pH 7.5, 150 mM NaCl, 3.4 mM EDTA, 0.001% NP-40, 30 C. Particulars: tags: His6 N-terminal (pET28a); label: 5' 32P. In a few lines:
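Purified RbFox RRM, wild type or mutant, was incubated for 10 min in 50 µL with 1 nM of a 5′-radiolabelled RNA pool carrying 7 randomized nucleotides, whose flanks were annealed to DNA oligonucleotides, over a series of increasing protein concentrations. Unbound RNA was resolved on 8% native PAGE, cut out, reverse-transcribed, barcoded by PCR and sequenced on an Illumina HiSeq 2500. Relative association constants were derived from changes in read counts for each RNA species versus the control reaction and normalised to the cognate motif.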
Background: In EMSA bound probe runs differently from free probe, usually more slowly.
In the case of B1, the binding signal is 0.0978 KA relative to UGCAUGU.
In the case of B2 it was 0.105 KA relative to UGCAUGU; in that of B3, 0.0943 KA relative to UGCAUGU; in that of B4, 0.0803 KA relative to UGCAUGU.
In the case of B5, the binding signal was 0.0669 KA relative to UGCAUGU.
B6: the binding signal was 0.0573 KA relative to UGCAUGU.
The result for B7 reads 0.0729 KA relative to UGCAUGU; that for B8, 0.0878 KA relative to UGCAUGU.
Take B9: the binding signal was 0.0897 KA relative to UGCAUGU.
For the molecule B10, the binding signal is 0.0681 KA relative to UGCAUGU.
The result for B11 reads 0.107 KA relative to UGCAUGU; that for B12, 0.0965 KA relative to UGCAUGU.
The result for B13 reads 0.108 KA relative to UGCAUGU.
The result for B14 reads 0.128 KA relative to UGCAUGU; that for B15, 0.101 KA relative to UGCAUGU; that for B16, 0.0601 KA relative to UGCAUGU.
B17: the binding signal is 0.0914 KA relative to UGCAUGU.
As for B18, the binding signal is 0.0521 KA relative to UGCAUGU.
The result for B19 reads 0.0695 KA relative to UGCAUGU.
B20: the binding signal is 0.0893 KA relative to UGCAUGU.

For the origin of these results see article PMC9911399, “Two distinct binding modes provide the RNA-binding protein RbFox with extraordinary sequence specificity”.
